Read counts are not given, so values of variants with three or more changes are uncertain.
B1: LINE1-full (parent)
chain: UACGUAGGUGGUUUUCCCCUGAUAGUGCUAAGGGGGCCUGGAAGUUUGGACUGGGCAGAGCUCAACACAGCGUGGCAAAGUGGCUGUGGCUAGACUGCCUCUCUGGAUUCCUCGUCACUCAGCAGGGCAUCUCUGAGAGAAAUGCC

Variants of: B1
Test: self-cleavage, relative activity (ratio to wild type); higher = more cleavage; in vitro, sequencing; the parent is a self-cleaving ribozyme
For UACGUAGGUAGUUUUCCCCGGAUAGUGCUAAGGGGGCCUGGGAGUUUGGACUGGGCAGAGCUCAACACAGCGUAGCAAAGUGGCUGUGGCUAGACUGCCUCUCUGGAUUCCUCGCCACUCAGCAGGGCAUCUCUGAGAGAAAUGCC [G10A U20G A42G G74A U115C], the self-cleavage was 1.65.
Variant UACGUAGGUAGUUUUCCCCUGAUAGUGCUAAGGGGGCCUGGAAGUUUGGACUGGGCAGAGCUUAACACAGCGUGGCAAAGCGGCUGUGGCUAGACUGCCUCUCUGGAUUCCUCGUCACUCAGCAGGGCAUCUCUGAGAGAAAUGCC [G10A C63U U81C] has a self-cleavage of 0.32.
Work on UACGUAGGUAGCUUUCCCCUGAUAGUGCUAAGGGGGCCUGGAAGUUUGGACUGGGCUGAGCUCAACACAGCGUGGCAAAGUGGCUGUGGCUAGACUGCCUCUCUGGAUCCCUCGUCACUCAGCAGGGCAUCUCUGAGAGAAACGCC [G10A U12C A57U U109C U143C] yielded a self-cleavage of 0.08.
UACGUAGGGGGUUUUCCCCUGAUAGUGCUAAGGGGGCCUGGAAGUUUGGACUGGGCAGAGCUCAACACAGCGUGGCAAAGUGGCCGUGGCUAGACUGCCUCUCUGGAUUCCUCGUCACUCAGCUGGGCAUCUCUGAGAGAAAUGCC [U9G U85C A124U] showed a self-cleavage of 0.26.
Variant UACGUAGGUUGUUUUCCCCUGGUAGUGCUAAGGGGGCCUGGAAGUUUAGUCUGGGCAGAGCUCAACACAGCGUGGCAAAGUGGCUGUGGCUAGACUGCCUCUCUGGAUUCCUCGACACUCAGCAGGGCAUCUCUGAGAGGAAUGCC [G10U A22G G48A A50U U115A A140G] has a self-cleavage of 1.11.
For UACGUAGGUAGUUCUCCCCUGAUAGCGCUAAGGGGGCCUGGAAGUUUGGACUGGGCAGAGCUCAACACAGCGUGGCAAAGUGGCUGUGGCUAGACUGCCUCUCUGGAUUCCUAGUCACUCAGCAGGGCAUCUCUGAGAGAAAUGCC [G10A U14C U26C C113A], the self-cleavage was 0.96.
For UACGUAGGUAGUUUUCCCCUGAUAGUGCUAAGGGGGCCUGGAAGUUUGGGCUGGGCAGAGCUCAACACAGCGUGGCAGAGUGGCUGUGGCUAGACUGCCUCUCUGGAUUCCUCGUCACUCAGCAGGGCAUCUCUGAGAGAAAUGCC [G10A A50G A78G], the self-cleavage was 1.1.
For UACGUAGGUAGUUUUCCCCUGAUGGUGCUAAGGGGGCCUGAAAGUUUGGACUGGGCGGAGCUCAACACAGCGUGGCAAAGUGGCUGUGGCUAGACUGCCUCUCUGGAUUCCUCGUCACUCAGCAGGGCAUCUCUGAGAGAAAUGCC [G10A A24G G41A A57G], the self-cleavage was 0.43.
UACGUAGGUAGUUUUCCCCUGAUAGUGCCAAGGGGGCCUGGAAGUUUGGACUGGGCAGAGCUCAACACAGCGUGGCAAAGUGGCUGUGGCUAGACUGCCUCUCUGGAUUCCUCGUCACUCAGCAGGGCUUCUCUGAGAGAAAUGCC [G10A U29C A129U] showed a self-cleavage of 1.37.
Work on UACGUAGGUAGUUUUCCCCUGAUAGUGCUAAGGGGGCCUGGAAGUUUGGACAGGGCAGAGCUCAACACAGCGUGGCAAAGUGGCUGUGGCUAGACUGCCUCUCUGGAUUCCUCGUCACUCAGCAGGGCAUCUCUGGGAGAAAUGCC [G10A U52A A136G] yielded a self-cleavage of 1.15.
For UACGUAGGGGGUUUUCCCCUGAUAGUGCUAAGGGGGCCUGGAAGUCUUGACUGGGCAGAGCUCAACACAGCGUGGCAAAGUGGCUGUGGCUAGACUGCCUCUCUGGAUUCCUCGUCACUCAGCAGGGCAUCUCUGUGAGAAAUGCC [U9G U46C G48U A136U], the self-cleavage was 1.22.
For UACGUAGGUCGUUUUCCCCUGAUAGUGCUAAGGGGGCCUGGAAGUUUGGACUGGGCAGAGCACAACACAGCGGGGCAAAGUGGCUGUGGCUAGACUGCCUCUCUGGAUUCCCCGUCACUCAGCAGGGCAUCUCUGAGAGAAAUGCC [G10C U62A U73G U112C], the self-cleavage was 0.04.
With UACGUAGGUAGUUUUCCCCAGAUAGUGCUAAGGGGGCCUGGAAGUGUGGACUGGGCAGAGCUCAACACAGCGUGGCAAAGUGGCUGUGGCUAGACUGCCUCUCUGGAUUCCUCGUCACUCAGCAGGGCAUCUCUGAGAGAAAUGCC [G10A U20A U46G] the self-cleavage was 1.07.
Variant UACGUAGGUAGUUUUCCCCUGAUAGUGCUAAGGGGGCCUGGAAGUUUGGACUGGGCAGAGCUCAACACAGCGUGGCAAAGUGGCUGUGGCUAGACUGCCUCUCUGGAUUCCUCGUCACUCAGCAGGGCAUCUCUGAGAGAGGUGCC [G10A A141G A142G] has a self-cleavage of 1.24.
With UACGUAGGUAGUUUUCCCCUGAUAGUGCUGAGGGGGCCUGGAAGUUUGGACUGGGCAGAGCUCAACACUGCGUGGCAAAGUGGCUGUGGCUAGACUGCCUCUCUGGAUUCCUCGUCACUCAGCAGGGCAUCUCUGAGAGAAAUGCC [G10A A30G A69U] the self-cleavage was 0.05.
Variant UACGUAGGUAGUUUUCCCCUGAUAGUGCUAAGGGGCCCCGGAAGUUCGGACUGGGCAGAGCUCAACACAGCGUGGCAAAGUGGCCGUGGCUAGACUGCCUCUCUGGAUUCCUCGUCACUCAGCAGGGCAUCUCUGAGAGAAAUGCC [G10A G36C U39C U47C U85C] has a self-cleavage of 0.68.
UACGUAGGUAGUUUUCCCCUGAUAGUGCUAAGGGGGCCUGGAAGUUUGGACUGGGCAGAGCUCAACAUAGCGUGGCAAAGUGGCUGUGGCUAGACUGCCUCUCUGGGUUCCUCGUCACUCAGCAGGGCAUCUCUGAGAGAAAUGCC [G10A C68U A107G] gave a self-cleavage of 0.23.
In the case of UACGUAGGUAGUUUUCCCCGGAUAGUGCUAAGGGGGCCUGGAAGUUUGGACUGGGCAGAGCUCAACUCAGCGUGGCAAAGUGGCUGUGGCUAGACUGCCUCUCUGGAUUCCUCGUCACUCAGCAGGGCUUCUCUGAGAGAAAUGCC [G10A U20G A67U A129U], the self-cleavage is reported as 0.18.
UACGUAGGUAGUUUUCCCCUGGUAGUGCUAAGGGGGCCUGGAAGUUUGGACUGGGCAGAGCUCAACACAGCGUGGCAAAGUGGCUGUGGCUAGACUGCCUCUCUGGACUCCUCGUCACUCAGCAGGGCAUCUCUGAGAGAAAUGCC [G10A A22G U108C] showed a self-cleavage of 1.97.
Work on UACGUAGGUAGUUUUCCCCUGAUAGUGCUAAGGGGGCCUGGAAGUUUGGACUGGGCAGAGCUCAACACAGCGUGGCAAAGUGGCUGUGGCUAGACUGCCUCUCUGGAUUCCCCGUCACUCAGUAGGGCAUCUCUGAGAGAAAUGCC [G10A U112C C123U] yielded a self-cleavage of 0.94.
Variant UACGUAGGUAGUUUUCCCCUGAUAGUGCUAAGGGGGCCUGGAGGUUUGGCCUGGGCAGAGCUCAACACAGCGUGGCAAAGUGGCUGUGGCUAGACUGCCUCUCUGGAUUCCUCGUCACUCAGCAGGGCAUCUCUGAGAGAAAUGCC [G10A A43G A50C] has a self-cleavage of 0.87.
UACGUAGGGGGUUUUCCCCUGAUAGUGCUAAGGGGGCCUGGAAGUUUGGACUGGGCAGAGCUCAACACAGCGAGGCAAAGUGGCUGUGGCUAGACUGCCUCUCUGGAUUCCUCGUCACUCAGCAGGGCAUCUCUGUGAGAAAUGCC [U9G U73A A136U] showed a self-cleavage of 1.17.
In the case of UACGUAGGUAGUCUUCCCCUGGUGGUGCUAAGGGGGCCUGGAAGUUUGGACUGGGCAGAGCUCAGCACAGCGUGGCAAAGUGGCUGCGGCUAGACUGCCUCUCUGGAUUCCUCGUCACUCAGCAGGGCAUCUCUGAGAGAAAUGCC [G10A U13C A22G A24G A65G U87C], the self-cleavage is reported as 0.
With UACGUAGGUAGUUUUCCCCUGAUAGUGCUAAGGGGGCCUGGAAGUUUGGACUGGGCGGAGCUCAACACAGCGUGGCAAAGUGGCUGUGGCUAGACUGCCUCUCUGGAUUCCUCGUCACUCAGCAGGGCAUCCCUGAGAGAAAUGCC [G10A A57G U132C] the self-cleavage was 0.
UACGUAGGUAGUUUUCCCUUGAUAGUGCUAGGGGGGCCUGGAAGUUUGGACUGGGCAGAGCUCAACACAGCGUGGCAAAGUGGCUGUGGCUAGACUGCCUCUCUGGAUUCCUCGUCACACAGCUGGGCAUCUCUGAGAGAAAUGCC [G10A C19U A31G U119A A124U] showed a self-cleavage of 1.47.
In the case of UACGUAGGUAGUUUUCCCCCGAUAGUGCUAAGGCGGCCUGGAAGUUUGGACCGGGCAGAGCUCAACACAGCGUGGCAAAGUGGCUGUGGCUAGACUGCCUCUCUGGAUUCCUCGUCACUCAGCAGGGCAUCUCUGAGAGAAAUGCC [G10A U20C G34C U52C], the self-cleavage is reported as 0.89.
Work on UACGUAGGUAGUUUUCCCCUGAUAGUGCUAAGGGGGCCUGGAAGUUUGGACUGGGCAGAGCUCAACACUGCGUGGCGAAGUGGCUGUGGCUAGACUGCCUCUCUGGAUUCCUCGUCACUCAGCAGGGCAUCUCUGAGAGAAAUGCC [G10A A69U A77G] yielded a self-cleavage of 0.11.
Work on UACGUAGGUAGUUUUCCCCUGGUAGUGCUGAGGGGGCCUGGAAGUUUGGACUGGGCAGGGCUCAACACAGCGUGGCAAAGUGGCUGUGGCCAGACUGCCUCUCUGGAUUCCUCGUCACUCAGCAGGGCAUCUCUGAGAGAAAUGCC [G10A A22G A30G A59G U91C] yielded a self-cleavage of 0.
With UACGUAGGGGGUUUUCCCCUGAUAGUGCUAAGGGGGCCUGGAAGUUUGGACUGGGCAGAGCUCAACACAGCGUGGCAAAGUGGCUGUGGCUAGACUGCCUCCCUGGAUUCCUCGUCACUCAGCAGGGCAUCUCUGAGGGAGAUGCC [U9G U102C A138G A141G] the self-cleavage was 0.
With UACGUAGGUAGUUUUCCCCUGAUUGUGCUAAGGGGGCCUGGAAGUUUGGACUGGGCAGAGCUCAACACAGCGUGGCAAAGUGGCUGUGGCUAGACUGCCUCUCUGGGUUCCUCGUCACUCAGCAGGGCAUCUCUGAGAGAAAUGCC [G10A A24U A107G] the self-cleavage was 0.68.
UACGUAGGGGGUUUUCCCCUGAUAGUGCUAAGGGGGCCUGGAAGUUUGGACUGGGCAGAGCUCAACACAGCGUGGCAAAGUGGCUGUGGCUAGACUGCCUCUCUGGAUUCCUCGUCACUCAGCAGGGCAUCUCAGAGAGAGAUGCC [U9G U134A A141G] gave a self-cleavage of 0.47.
Variant UACGUAGGUAGUUUUCCCCCGAUAGUGCUAAGGGGGCCUGGAAGUUUGGACUGGGCAGAGCUCAACACAGCGUGGCAAAGUGGCUGUGACUAGACUGCCUCUCUGGAUUCCUCGUCACUCAGCAGGGCAUCUCUGAGAGAAAUGCC [G10A U20C G89A] has a self-cleavage of 0.06.
UACGUAGGUAGUUUCCCCCUGAUAGUGCUAAGGGGGCCUGGAAGUUUGGACUGGGCGGAGCUCAACACAGCGUGGCAAAGUGGCUGUGGCUAGACUGCCUCUCUGGAUUCCUCGUCACUCAGCAGGGCAUCUCUGAGAGAAAUGCC [G10A U15C A57G] showed a self-cleavage of 1.58.
For UACGUAGGUAGUCUUCCCCUGAUAGUGCUAAGGGGGCCUGGAAGUUUGGACUGGGCAGAGCUCAACACAGCGUGGCAAAGUGGCUGUGGCUAGACUGCCUCUCUGGAUUCCCCGUCACUCAGCAGGGCAUCUCUGAGAGAGAUGCC [G10A U13C U112C A141G], the self-cleavage was 1.4.
Variant UACGUAGGUAGUUUUCCCCUGAUAGUGCUAAGGGGGCCUGGAAGCUUGGACAGGGCAGAGCACAACACAGCAUGGCAAAGUGGCUGUGGCUAGACUGCCUCUCUGGGUUCCUAGUCACUCAGCAGGGCAUCUCUGAGAGAAGUGCC [G10A U45C U52A U62A G72A A107G C113A A142G] has a self-cleavage of 0.05.
With UACGUAGGUAGUUUUCCCCUGAUAGUGCUAAGGGGGCCUGGAAGUUUGGACUGGGCUGAGCUCAACACAGCGUGGCAAAGUGGCUGUGGCUAGACUGCCUCUCUGGAUUCCUUGUCACUCAGCAGGGCAUCUCUGAGAGAAAUGCC [G10A A57U C113U] the self-cleavage was 0.07.
UACGUAGGUAGUUUUCCCCUGGUAGUGCUAAGGGGGCCUGGAAGUUUGGACUGGGCAGAGCUCAUCACAGCGUGGCAAAGUGGCUGUGGCUAGACUGCCUCUCUGGAUUCCUCGUCACUCAGCAGGGCAUCUCUGAGAGAAAUGCC [G10A A22G A65U] showed a self-cleavage of 0.17.
UACGUAGGUAGUUUUCCCCUGAUAGUGCUAAGGGGGCCUGGAAGUUUGGACUGGGCAGAGCUCAACUCAGCGUGGCAAAGUGGCUGUGGCUAGACUGCCUCUCUGGAUUCCUCGUCACUCAGCAGGGCAUCUCUGAGAGUAAUGCC [G10A A67U A140U] gave a self-cleavage of 0.23.
Work on UACGUAGGUAGUUUUCCCCUGAUGGUGCUAAGGGGGCCUGGAAGUUUGGACUGGGCAGUGCUCAACACAGCGUGGCAAAGUGGCUGUGGCUAGACUGCCUCUCUGGAUUCCUCGUCACCCAGCAGGGCAUCUCUGAGAGAAUUGCC [G10A A24G A59U U119C A142U] yielded a self-cleavage of 1.33.

— the RNAGym collection of RNA variant scans (doi:10.7554/elife.90254)
